In the supplement of paper PMC11417369:
The other results are listed elsewhere or left out.

Each sequence was assayed on PfHDP1 homeodomain (GST-tagged) (assay: gcPBM binding intensity (ln(normalized median fluorescence intensity)); higher = stronger DNA binding).
Procedure, shortened: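 For binding intensity, the highest Masliner-normalised natural-log median intensity across replicate spots of either probe orientation was taken. Protein bound to the array was stained with Alexa488 anti-GST antibody and scanned at 488 nm. The protein, GST-tagged P. falciparum DNA-binding domains from E. coli at about 25 μg on average, had been applied for 1 h to an Agilent 4 × 180k array of primer-extended double-stranded 36-bp intergenic genomic probes and negative controls.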

Going from “AAAAAAAAAAAAGATACACACAAAAATGAATATATA [CACACA_site2099]” to “AATAATATAGATTGTACACACAAAATGGGAAAAAAA [CACACA_site1886]”, the “gcPBM binding intensity (ln)” value rises from 6.19 to 7.48.

Going from “ATAAATGGAAACAAAAGTACTAAAAAAAAAAAATAA [XGTACX_site1510]” to “ATTATGTATATAAATTAACACACATATGTGGTTAAT [CACACA_site9028]”, the “gcPBM binding intensity (ln)” value falls from 6.52 to 6.37.

Going from “ACGGGTCAATATATGCGTACTTATTTAAATAATTAA [XGTACX_site1518]” to “TATATATGTATGTATTGTACAATTAAAAATATGTAT [XGTACX_site3990]”, the “gcPBM binding intensity (ln)” value rises from 6.56 to 6.68.

Compared with “ATTTTTTCTTATAATGCATGTAGAAAACCGTACAGC [TGCATGCA_site57]”, “AGGCTCAAATCTAGGTGTACCATTATCGTTGTATCT [XGTACX_site4730]” is lower in “gcPBM binding intensity (ln)” value: 6.46 for the first, 6.2 for the second.

Compared with “CCTAAATTATATTATGCACACTTAAAAATATATTTA [CACACA_site5861]”, “TATGTGTTTATTTGGTGTACATACTAATAAATATAC [XGTACX_site1682]” is lower in “gcPBM binding intensity (ln)” value: 9.95 for the first, 6.74 for the second.

Going from “ATATATATATATATATGTACTTATTTATCGTATTAT [XGTACX_site3520]” to “ATTAATATTCTATATGCATGTGAACCATGGTATATA [TGCATGCA_site430]”, the “gcPBM binding intensity (ln)” value falls from 9.59 to 6.44.

Going from “TCATATCTTTTGAGCACACATATATATATATAAAGG [CACACA_site3338]” to “TTTCTTTTTAAATATATACACACCGTGGGTACATAT [CACACA_site9102]”, the “gcPBM binding intensity (ln)” value falls from 7.3 to 6.81.

First: TTATATTTATTTATTTGTACATATTTTTTTTTATAT [XGTACX_site1669]
Second: ATATAATAAAATGACACACGCATATATATATATATA [CACACA_site2789]
The “gcPBM binding intensity (ln)” value of the first is lower: 6.54 for the first, 9.45 for the second.

First: ATACTAAAAAGTATCTGTACTTATTTTAAAAATAAA [XGTACX_site4116]
Second: TAAAAAATGAAAAAGCGTACATGTTTTCTTATATTA [XGTACX_site1722]
The “gcPBM binding intensity (ln)” value of the first is lower: 6.05 for the first, 6.11 for the second.

Going from “TTTTCTAAAATGAATTGTACTTGATTATTTAAAAAA [XGTACX_site6097]” to “TGTATCATAAAAATAACACACGTATTTTTTTTTATT [CACACA_site1050]”, the “gcPBM binding intensity (ln)” value rises from 5.72 to 6.42.

First: TATTTACTTATATGCACACATAAATGTGAATTATGG [CACACA_site3777]
Second: TAAATAATTAAAATATGTACTGAAATGTAATTATTT [XGTACX_site5894]
The “gcPBM binding intensity (ln)” value of the first is higher: 10.4 for the first, 6.38 for the second.

Going from TTCTCATTCAAATTAGTGCATTTTTGTTATTACATT to “AAACAGAAGACATATACACACATACAAAAAAGTGCA [CACACA_site4699]”, the “gcPBM binding intensity (ln)” value falls from 9.79 to 6.82.

Compared with “TGTGTATATATATAATGTACATAAAGATTTATATAT [XGTACX_site5835]”, “ATATAAATTTTTTAGAGTACTAAAATAAAATAATAT [XGTACX_site2118]” is lower in “gcPBM binding intensity (ln)” value: 6.72 for the first, 6.61 for the second.

Going from “TTTTAAGAATAAAATTGTACACATACATGTGTTCGC [XGTACX_site438]” to “TTATTTATATATTCATGTACATAACATTTCATTCGA [XGTACX_site4388]”, the “gcPBM binding intensity (ln)” value rises from 6.17 to 6.4.

Compared with “AAAAATAACGTAAATTGTACATGTAAAATTTTCTAT [XGTACX_site7158]”, “ATAGAAATATATATATGTACATATAGATAAATCTAT [XGTACX_site7833]” is lower in “gcPBM binding intensity (ln)” value: 6.46 for the first, 6.16 for the second.

First: ATATGAAATAATAATAGTACATAAAATAATTTTACT [XGTACX_site6964]
Second: ATAAATACAGATAACACACACATATATATATATATA [CACACA_site5431]
The “gcPBM binding intensity (ln)” value of the first is lower: 6.13 for the first, 9.66 for the second.

Going from “CCAACATGCCCACGCACACACAAAAAAAGCATGCAT [CACACA_site4217]” to “AATAATATATATATATATATAATAAAATATAAATAG [CACACA_negctrl_site1515]”, the “gcPBM binding intensity (ln)” value falls from 7.08 to 6.52.

Going from “TGTTTTATACTAAATGAACACACACCCATATATATA [CACACA_site7912]” to “TTATTTATTTATAATAGTACAATTTAATGATCTTCT [XGTACX_site4831]”, the “gcPBM binding intensity (ln)” value falls from 6.94 to 6.13.

Compared with “CAATATATTTGATTTACACACTTACAATGTATATAA [CACACA_site2994]”, “ATAATATTTTAATGCACACACACAAAAAAAAAAAAA [CACACA_site2891]” is higher in “gcPBM binding intensity (ln)” value: 6.54 for the first, 9.96 for the second.

Compared with “AAATTTGCTTTTATTTTACACACTTGCTCCTGTTGT [CACACA_site8276]”, “AAACAATCTAAAAGTAGTACAATAAAAATATATATA [XGTACX_site5607]” is lower in “gcPBM binding intensity (ln)” value: 7.35 for the first, 6.69 for the second.

First: AAAAAAAAATTATTCACACATATATATATATATATA [CACACA_site5579]
Second: GAACCATAAGGAACGACACACAAAGATAAATAAATA [CACACA_site3472]
The “gcPBM binding intensity (ln)” value of the first is higher: 9.3 for the first, 6.2 for the second.

Going from “AAAAATAAAAAAAGCACACACATATATATATATATA [CACACA_site1885]” to “TATAATCATATTAAGGGTACATATGTGTAAATATTT [XGTACX_site6018]”, the “gcPBM binding intensity (ln)” value falls from 9.32 to 7.05.

First: TTATTATAAATGTTTTGTACGTACATCCGAAAATAA [XGTACX_site2175]
Second: CTTTAAAACCGGTACTGTACACATAGTATTATTATC [XGTACX_site2602]
The “gcPBM binding intensity (ln)” value of the first is lower: 6.57 for the first, 6.58 for the second.

Going from “ATAATAATAATATAACCAAGGAAATATAATATTTGT [XGTACX_negctrl_site485]” to “CGATACTTTAGGTGTACACAAATATACATGAATGAG [CACACA_site5189]”, the “gcPBM binding intensity (ln)” value rises from 6.27 to 7.

Compared with “AAAAAAAAGGAAATAACACACATGTATTTATTTATA [CACACA_site4966]”, “AGCACATATATATTATGTACATATAACTTCCCAGTG [XGTACX_site7095]” is higher in “gcPBM binding intensity (ln)” value: 6.3 for the first, 6.44 for the second.

Going from “ATATTTATACATAAATGTACTTTTATATATTTAATA [XGTACX_site3020]” to “AATATTATAAATGATACACACTTAAAATACACGCAC [CACACA_site7305]”, the “gcPBM binding intensity (ln)” value rises from 6.17 to 6.89.

Going from “TATTACATAATACAAAGTACATATATTTTTTTATTT [XGTACX_site7061]” to “GTATATATATATATATGTACTAATTAGTAGTTTACG [XGTACX_site6274]”, the “gcPBM binding intensity (ln)” value rises from 6.19 to 6.98.

First: AATATAAATATTAAAACACACATAAAAAGATTATTA [CACACA_site1764]
Second: TGATATTTACAAATATTAAGATCTTATATTTTTTTT [CACACA_negctrl_site617]
The “gcPBM binding intensity (ln)” value of the first is higher: 6.29 for the first, 6.27 for the second.

In the case of “GTGTGAAACATAAACACACACAAAAAGAAAAAATAG [CACACA_site1227]”, the “gcPBM binding intensity (ln)” value is reported as 6.68.
